Measured values from patent US20150152166A1 (THERACLONE SCIENCES, published 2015).
Numbering of substitutions follows the chain as printed.

T1: CMV gp116 epitope AD2 site peptide SHRANETIYNTTLKYGDTTGTNTTK (CMV (human cytomegalovirus), not fully specified)
T1 construct: Synthetic polypeptide corresponding to the AD2 site of gp116 (glycoprotein B); A biotinylated form was used to select B cells; also called CMV gp116 AD2 peptide
T1 peptide: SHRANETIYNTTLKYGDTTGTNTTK

B1: 9C16 human anti-CMV antibody (antibody, human IgG1, kappa)
heavy: QVQLVDSGGGVVQPGRSLRLSCAASGLTFSDYGMHWVRQAPGKGLEWVAVISKDGTNTHYADSVRGRFTISRDNSKNIFYLQMNGLRAEDTAVYYSGRDGKCPDLKCYSGLIDYWGQGTLVTVSSASTKGPSVFPLAPSSKSTSGGTAALGCLVKDYFPEPVTVSWNSGALTSGVHTFPAVLQSSGLYSLSSVVTVPSSSLGTQTYICNVNHKPSNTKVDKRV[human IgG1 Fc left out]
light: EIVLTQSPATLSLSPGERATLSCRASQSVGGYLAWYQQKPGQAPRLLIYDASKRATGIPARFSGSGSGTDFTLTISTLEPEDFAIYYCHQRSSWPPLTFGGGTKVDIKRTVAAPSVFIFPPSDEQLKSGTASVVCLLNNFYPREAKVQWKVDNALQSGNSQESVTEQDSKDSTYSLSSTLTLSKADYEKHKVYACEVTHQGLSSPVTKSFNRGEC
notes: Recombinant human IgG, gamma heavy and kappa light chain; also called mAb F-9C16
B2: 2M16 human anti-CMV antibody (antibody)
heavy: QVQLVDSGGGMVQPGRSLRLSCSASGLTFSNYGMHWVRQAPGKGLEWVAVISSDGSNEHYADSVKGRFTISRDNFNNMLYLQMNSLRAEDTAVYYSARDGRCPDVNCYSGLIDYWGQGTLVTVSSASTKGPSVFPLAPSSKSTSGGTAALGCLVKDYFPEPVTVSWNSGALTSGVHTFPAVLQSSGLYSLSSVVTVPSSSLGTQTYICNVNHKPSNTKVDKRV[human IgG1 Fc left out]
light: B1 light with G31R, P40G, K53N, S76D, T77S, I85V, H89Q, S93N, T103S, D106E
notes: Recombinant human IgG, gamma heavy and kappa light chain; also called mAb B-2M16

Experiments:
[1] = target: T1, CMV gp116 epitope AD2 site peptide …; assay: kinetic affinity measurement, method not stated; antigen taken as CMV gp116 AD2 peptide
[2] = target: T1, CMV gp116 epitope AD2 site peptide …; assay: kinetic affinity measurement, method not stated; antigen taken as AD2 peptide; same value as r10, table re-sorted by koff
[3] = target: T1, CMV gp116 epitope AD2 site peptide …; assay: kinetic affinity measurement, method not stated; antigen taken as AD2 peptide; same value as r11, table re-sorted by koff

Binder | Kd [1] | koff [1] | kon [1] | Kd [2] | koff [2] | kon [2] | Kd [3] | koff [3] | kon [3]
B1 | 4.9 nM | 0.00286 s⁻¹ | 583000 M⁻¹ s⁻¹ | 4.9 nM | 0.00286 s⁻¹ | 583000 M⁻¹ s⁻¹ | – | – | –
B2 | 8.47 nM | 0.023 s⁻¹ | – | – | – | – | 8.47 nM | 0.023 s⁻¹ | 2.7e+06 M⁻¹ s⁻¹
